Experimental data from PubChem BioAssay AID1457 (National Center for Advancing Translational Sciences (NCATS), 2008).
The campaign covered roughly 210,000 compounds. About 730 (0.35%) were called active. The shares of active, inactive and inconclusive entries below differ from those in the screen. Calls come from the whole dose curve; as a rule, active = well fitted inhibition curve with a large enough effect; inconclusive = small, poorly fitted or top-dose-only effect; inactive = no such curve, though single readings can be large or run the other way. Potencies beside an inconclusive call are fits to weak or partial responses and may not hold up.

experiment: qHTS Assay for Identifying the Cell-Membrane Permeable IMPase Inhibitors: Potentiation with Lithium; details: CHO-M1 cells, IP1 TR-FRET (IP-One), carbachol + lithium; series mostly up to 59.4 µM; activity, negative = IMPase inhibition: at the top concentration; note: nearly all actives have a fitted effect of over 50% in size;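 for activity, negative = IMPase inhibition: plate controls were basal vehicle for no effect and high inhibitor control for full effect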
From the text: NIH Chemical Genomics Center [NCGC]
NIH Molecular Libraries Probe Production centers Network [MLPCN]
Assay Submitter (PI): Wei Zheng
Lithium has been widely used for the treatment of bipolar disorder. But lithium has a narrow therapeutic index and it can cause side effects such as thirst, weight gain, tremor, polyuria and memory problems. Although the mechanism for lithium action in treatment of bipolar disorder is still not fully understood, inhibition of inositol monophosphatase (IMPase) and the subsequent depletion of the inositol pool in living cells have been implicated as the primary therapeutic benefit of lithium therapy. Therefore, a selective IMPase inhibitor with reduced side effects might be a good drug candidate to replace lithium for the treatment of bipolar disorder. Several IMPase inhibitors have been discovered previously. However, they are not suitable for therapeutic use because of their poor cell membrane penetrability or oral bioavailability; the development of new cell-permeable IMPase inhibitors is needed.
IMPase catalyzes the hydrolysis of inositol-1-phosphate (IP1) to release free inositol. Binding of an agonist to a Gq coupled GPCR results in the activation of PLC, which hydrolyzes the PIP2 to form inositol-1,4,5-trisphosphate (IP3) and diacyl glycerol (DAG). While DAG activates protein kinase C (PKC), IP3 triggers the elevation of intracellular free Ca2+. The IP3 is very rapidly inactivated by hydrolysis to IP2, IP1 and then inositol by a series of enzymes including IMPase. Free inositols are used for synthesis of PI and thus start another inositol cycle.
To identify new cell-permeable IMPase inhibitors, we developed a cell-based IMPase assay in which the cytosolic IP1 is measured by a time-resolved fluorescence resonance energy transfer (TR-FRET) assay. In this assay, an IP1 specific antibody is used to detect the labeled IP1 tracer. When the cell lysate contains the elevated IP1 due to the inhibition of IMPase, the TR-FRET between the labeled antibody and IP1 tracer is disrupted resulting in a reduction in the total signal. Since the TR-FRET is used, this cell-based assay is a homogenous assay without cell wash and medium change that is suitable for assay miniaturization and HTS. In this particular assay, a small amount of lithium is added to potentiate the response of weak activators.
NCGC Assay Protocol Summary:
A Chinese hamster ovary (CHO) cell line stably expressing the M1 receptor (CHO-M1) was obtained from ATCC and maintained in F-12 Kaighn's media (Invitrogen, Carlsbad, CA) supplemented with 10 % FBS, 100 units/ml penicillin, 100 ug/ml streptomycin and 250 ug/ml geneticin at 37C, 5% CO2 in a humidified atmosphere. Before the assay, aliquots of cells were frozen and stored at -135C. The assay was performed in 1536-well format. Data are reported for both the ratio of the two emission wavelengths, and also for the component 'donor' channel, Em2=620. […] AC50 values were determined from concentration-response data modeled with the standard Hill equation.
(1) Frozen CHO-M1 cells were thaw, washed once with fresh media and resuspended in F12K media containing 10% FBS, 100 units/ml penicillin and 100 ug/ml streptomycin. Cells were plated at 4ul/well (2000 cells) in white, tissue culture treated 1536-well plates, and then cultured at 37C, 5 % CO2 for 16 to 30 hours.
(2) Add 23 nl/well of compound in DMSO solution. The final titration for each compound was between 0.6 nM and 46 uM.
(4) Incubation at 37C, 5 % CO2 for 30 min.
(5) Add 1 ul/well of d2-conjugated IP1 (d2-IP1) and 1 ul/well of Eu+ cryptate conjugated anti-IP1 antibody (Eu+-Ab) prepared in the cell lysis buffer, both from the IP-One kit (Cisbio, MA).
(6) Incubate at room temperature for 10 minutes.
(7) Detect the assay plate (Ex = 320, Em1 =665 and Em2 620) in a ViewLux plate reader.
Potency is the fitted concentration of half-maximal effect.

activity, negative = IMPase inhibition, inactive:
COc1ccc(NC(=O)CSc2nc3[nH]ncc3c(=O)n2-c2ccccc2C)cc1OC 12%, CN(C)CC(=O)N1CCc2ccccc2C1 -2.11%, COc1ccc(S(=O)(=O)N2CCC(N3CCN(Cc4ccccc4)CC3)CC2)cc1 19.9%, CCOC(=O)N1CCC(NC(=O)C(NC(=O)C2CCCCC2)C(C)C)CC1 (stereo unspecified) 12.4% [at 38.3 µM], CCOC(=O)C1=C(C)Nc2ccc(C)cc2S1 11.5% [at 38.3 µM], CC(=O)Nc1ccc(NC(=O)COC(=O)c2cnccn2)cc1 -2.56%, Cn1cc(CN2CCc3ccccc3C2)c2ccccc21 22.5% [at 38.3 µM], CCN(CC)c1ccc(/C=N/n2nnnc2N)c(O)c1 -2.46% [at 38.3 µM], O=C(c1cc(Br)ccc1O)c1cc(Br)ccc1O 9.06%, O=C(COc1ccc(/C=N/NC(=O)c2cc3ccccc3o2)cc1Br)Nc1ccccc1 -27.8% [at 38.3 µM], CCN1CCN(C(=O)C2c3cc(OC)c(OC)cc3C(=O)N(C)C2c2ccc(SC)cc2)CC1 (stereo unspecified) 6.44%, COCCNC(=O)CSc1nc(-c2ccccc2)cs1 -3.83% [at 38.3 µM], Cc1cc(=O)[nH]c(SCC(=O)Nc2cccc(C(F)(F)F)c2)n1 3.77% [at 38.3 µM]

Potency, inconclusive:
Cn1sc(NC(=O)c2ccccc2)nc1=O 0.316 µM [inhibitor, full curve, poor fit], Cc1n[nH]c(=S)c2nn(-c3cccc(Cl)c3)c(C)c12 8.91 µM [inhibitor, partial curve], COc1ccc(-c2nc3nc(SC)nn3cc2C)cc1F 28.2 µM [inhibitor, single point], CC1(C)CC(=O)c2sc(NC(=O)Cc3cccs3)nc2C1 22.4 µM [inhibitor, single point], CCOC(=O)c1sc(NC(=O)c2cc3c(s2)CCC(C)C3)nc1C (stereo unspecified) 28.2 µM [inhibitor, single point], O=C(CNC(=S)N(Cc1ccccc1F)C1CCCCC1)NCC1CCCO1 (stereo unspecified) 5.01 µM [inhibitor, single point], CCOc1ccc(-c2c(C#N)c(N)nc3c2c(=O)n(C)c(=O)n3C)cc1OC 28.2 µM [inhibitor, single point], COc1ccc2nc(NC(=O)CCN3C(=S)NC(C)(C)CC3C)sc2c1 (stereo unspecified) 12.6 µM [inhibitor, partial curve], O=C(Nc1ccc2oc(-c3ccncc3)nc2c1)c1ccccc1F 28.2 µM [inhibitor, single point], COc1ccc2cc3cc(C(=O)NCc4ccccn4)oc3nc2c1 2.51 µM [inhibitor, full curve], CCOc1ccc(/C(O)=C2/C(=O)C(=O)N(CC3CCCO3)C2c2ccc(C)o2)cc1 (stereo unspecified) 3.16 µM [inhibitor, partial curve], N#Cc1ccccc1CSc1ccc(-c2nc3ccccc3[nH]2)cn1 2.82 µM [inhibitor, partial curve], O=C(O)CN1CCN(Cc2ccc(F)cc2Cl)C1=O 28.2 µM [inhibitor, single point], Cc1ccc(C)c(-n2nnnc2SCC(=O)c2ccc3c(c2)NC(=O)CO3)c1 28.2 µM [inhibitor, single point], COc1ccccc1NC(=O)C1=C(C)NC(SCC(=O)c2ccc(C)cc2)=C(C#N)C1c1ccco1 (stereo unspecified) 12.6 µM [inhibitor, single point], N#CCCn1c(=O)c(-c2cccs2)nc2cnc(OCc3ccccc3)nc21 14.1 µM [inhibitor, partial curve], CCOC(=O)c1c(C)[nH]c(C(=O)Cn2nnc(-c3ccccc3)n2)c1C 22.4 µM [inhibitor, single point], CCN1CCN(Cc2c(O)c(Cl)cc3c(C)cc(=O)oc23)CC1 31.6 µM [inhibitor, partial curve], COc1cc2c(=O)n(CCCC(=O)NCC3CCCO3)c(=O)n(CC(=O)c3ccc(F)cc3)c2cc1OC (stereo unspecified) 28.2 µM [inhibitor, single point], Cn1c(=O)n(CCC(=O)O)c2ccccc21 2.24 µM [inhibitor, single point], COCCN1C(=O)C(O)=C(C(C)=O)C1c1ccc(F)cc1 (stereo unspecified) 28.2 µM [inhibitor, single point], O=C(Nc1ccccc1)c1sc(N2CCOCC2)nc1-c1ccccc1 25.1 µM [inhibitor, single point], Cc1ccc(C(=O)N/N=C\c2c(C)nn(-c3ccccc3)c2Cl)cn1 22.4 µM [inhibitor, single point], CCN1C(=O)CC(N2CCC(c3nc4ccccc4[nH]3)CC2)C1=O (stereo unspecified) 3.55 µM [inhibitor, full curve, poor fit], Cc1cc(-n2c(=O)c(C#N)cc3c(=O)n4ccccc4nc32)no1 25.1 µM [inhibitor, single point], COc1ccc(Oc2cnn(-c3ccccc3)c(=O)c2Br)cc1 10 µM [inhibitor, single point], COc1ncc2nc(-c3ccc(Cl)cc3)c(=O)n(CCc3ccccc3)c2n1 22.4 µM [inhibitor, single point], CCc1ccc(OCC(=O)NNC(=O)CSc2ncnc3sc(C)c(C)c23)cc1 28.2 µM [inhibitor, single point], c1ccc(CNc2nc3ccccc3n3cnnc23)cc1 12.6 µM [inhibitor, single point]

Potency, active:
Cn1c2ccccc2c2c3c(c4c5ccccc5n(CCC#N)c4c21)CNC3=O 3.55 µM, Cc1ccc(-n2nc3c(=S)[nH]nc(C)c3c2C)cc1 4.47 µM, CCCOc1ccc(/C(O)=C2\C(=O)C(=O)N(CCCOC)C23C(=O)N(C)c2ccccc23)cc1 (stereo unspecified) 10 µM, O=C(CSc1nc2ccccc2c(=O)n1Cc1ccccc1)NCc1ccco1 10 µM
